# Measurements as given in PMC4336329 (PLoS ONE, 2015).
# Screen size: about 310,000 compounds; about 2,200 (0.71%) showed an effect of 50% or more. Effects have a minus sign here. The list shows a part of the results.
# Molecular target: human ether-à-go-go-related gene (hERG) potassium channel (human, UniProt Q12809)
# Test: primary screen, population patch clamp on CHO cells stably expressing hERG
# Sequence of human ether-à-go-go-related gene (hERG) potassium channel (Q12809 whole entry, looked up): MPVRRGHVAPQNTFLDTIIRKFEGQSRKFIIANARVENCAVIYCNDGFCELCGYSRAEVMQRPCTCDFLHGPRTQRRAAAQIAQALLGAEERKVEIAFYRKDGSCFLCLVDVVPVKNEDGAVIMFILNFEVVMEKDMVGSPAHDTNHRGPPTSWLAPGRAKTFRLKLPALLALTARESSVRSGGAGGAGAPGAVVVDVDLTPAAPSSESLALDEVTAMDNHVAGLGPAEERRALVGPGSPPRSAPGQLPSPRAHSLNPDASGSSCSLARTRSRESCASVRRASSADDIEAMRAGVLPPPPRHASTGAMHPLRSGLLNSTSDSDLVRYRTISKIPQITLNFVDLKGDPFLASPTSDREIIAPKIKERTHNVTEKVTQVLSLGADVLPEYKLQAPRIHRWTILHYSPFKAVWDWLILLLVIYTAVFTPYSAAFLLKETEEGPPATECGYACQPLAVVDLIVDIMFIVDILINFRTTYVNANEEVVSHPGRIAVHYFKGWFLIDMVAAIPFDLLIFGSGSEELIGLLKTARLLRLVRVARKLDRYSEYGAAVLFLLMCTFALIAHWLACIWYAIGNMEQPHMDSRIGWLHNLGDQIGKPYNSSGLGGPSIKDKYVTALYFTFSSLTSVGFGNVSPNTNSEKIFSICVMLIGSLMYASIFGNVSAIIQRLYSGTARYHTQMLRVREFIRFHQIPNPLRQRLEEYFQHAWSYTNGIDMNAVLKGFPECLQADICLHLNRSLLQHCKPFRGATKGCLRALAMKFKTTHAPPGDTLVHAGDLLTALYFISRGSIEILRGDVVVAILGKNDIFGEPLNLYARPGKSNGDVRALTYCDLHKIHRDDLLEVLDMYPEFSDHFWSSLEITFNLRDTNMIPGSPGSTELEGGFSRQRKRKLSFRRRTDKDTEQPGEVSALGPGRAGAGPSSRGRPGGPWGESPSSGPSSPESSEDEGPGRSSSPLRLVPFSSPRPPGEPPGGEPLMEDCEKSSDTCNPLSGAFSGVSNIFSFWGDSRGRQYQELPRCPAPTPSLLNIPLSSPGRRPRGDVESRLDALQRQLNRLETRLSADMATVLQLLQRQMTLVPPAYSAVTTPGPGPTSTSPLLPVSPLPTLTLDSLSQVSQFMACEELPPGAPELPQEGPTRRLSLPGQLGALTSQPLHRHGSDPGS
row,Compound,"hERG current change (%, negative = inhibition) at 1uM [%]"
1,CC1=C(C(=O)N2CCCC(CCC(=O)NCc3ccccc3F)C2)OCCO1 (stereo not shown),7.2
2,N#CCCn1cc(/C=N/NC(=O)c2ccncc2)c(-c2ccccc2)n1,-0.828
3,COc1ccccc1N1CCN(C(=O)c2c(-c3ccccc3)noc2C)CC1,-29.2
4,Cc1ccc(NC(=O)CO/N=C/c2ccc(N(C)C)cc2)cc1,24.7
5,CCCC(=O)Nc1c2c(nn1-c1cccc(C)c1C)CS(=O)(=O)C2,4.62
6,Cc1nc(NC2CCCC2)sc1C(=O)N(C)C,12.7
7,CC(C)CC(C(=O)NCC1CCCO1)N(C(=O)Cn1nnc(-c2ccc(F)cc2)n1)c1ccccc1F (stereo not shown),-10.1
8,CC(=O)c1cccc(N(C(=O)c2csnn2)C(C(=O)NC2CCCC2)c2ccccc2)c1 (stereo not shown),0.77
9,O=C(O)CCCC(=O)NNC(=O)c1cccc(Br)c1,12.3
10,CCCN1C2CCCC1CC(NC(=S)Nc1cccc(C)c1)C2 (stereo not shown),-12.7
11,CCOC(=O)CSc1nnc2c3ccccc3n(C)c2n1,8.31
12,S=C(NCc1ccco1)Nc1cc(Cl)c(Cl)cc1Cl,15.5
13,COc1ccc(C(=S)NC2CCCCC2)cc1,-7.54
14,CNC(=S)NNC(=O)c1cccn(Cc2ccc(Cl)cc2Cl)c1=O,0.881
15,CN(CC(=O)Nc1ccc(F)cc1)C(=O)CSc1ccc2c(c1)OCCO2,1.22
16,C=CCc1cccc(C=Nc2cccn3cc(-c4ccccc4)nc23)c1O,18
17,CCN(CC)CCCNc1nc2cc(OC)c(OC)cc2c2nc(-c3ccccc3)nn12,2.16
18,Cc1ccc(S(=O)(=O)N2CCOCC2)cc1NC(=O)C1=NN(c2ccccc2)C(=O)CC1,3.12
19,CCOc1cc(/C=N/Nc2nc(N3CCCC3)nc(N3CCCC3)n2)ccc1O,-19.3
20,O=C1CC(=O)N(c2cccc(Br)c2)C(=O)N1,5.54
21,COc1ccccc1NS(=O)(=O)c1ccc(C(=O)NCC2(N(C)C)CCCCC2)cc1,17.4
22,NC(=O)c1cc2ccncc2c2ccccc12,8.56
23,CC(C)Nc1nc(Cl)nc(N(C#N)CN2C(=O)c3ccccc3C2=O)n1,7.53
24,O=c1c2ccccc2[nH]c(=S)n1CCN1CCN(Cc2ccccc2)CC1,4.81
25,Cc1c(CCOC(=O)c2cc([N+](=O)[O-])ccc2Cl)sc[n+]1CCCCS(=O)(=O)[O-],7.4
